# Results reported in patent US6436654 (PHARMACIA AND UPJOHN, dated 2002).
# B1: SRC-1 (full-length) (other, human, UniProt Q15788 1-1441, looked up)
# chain: MSGLGDSSSDPANPDSHKRKGSPCDTLASSTEKRRREQENKYLEELAELLSANISDIDSLSVKPDKCKILKKTVDQIQLMKRMEQEKSTTDDDVQKSDISSSSQGVIEKESLGPLLLEALDGFFFVVNCEGRIVFVSENVTSYLGYNQEELMNTSVYSILHVGDHAEFVKNLLPKSLVNGVPWPQEATRRNSHTFNCRMLIHPPDEPGTENQEACQRYEVMQCFTVSQPKSIQEDGEDFQSCLICIARRLPRPPAITGVESFMTKQDTTGKIISIDTSSLRAAGRTGWEDLVRKCIYAFFQPQGREPSYARQLFQEVMTRGTASSPSYRFILNDGTMLSAHTKCKLCYPQSPDMQPFIMGIHIIDREHSGLSPQDDTNSGMSIPRVNPSVNPSISPAHGVARSSTLPPSNSNMVSTRINRQQSSDLHSSSHSNSSNSQGSFGCSPGSQIVANVALNQGQASSQSSNPSLNLNNSPMEGTGISLAQFMSPRRQVTSGLATRPRMPNNSFPPNISTLSSPVGMTSSACNNNNRSYSNIPVTSLQGMNEGPNNSVGFSASSPVLRQMSSQNSPSRLNIQPAKAESKDNKEIASILNEMIQSDNSSSDGKPLDSGLLHNNDRLSDGDSKYSQTSHKLVQLLTTTAEQQLRHADIDTSCKDVLSCTGTSNSASANSSGGSCPSSHSSLTERHKILHRLLQEGSPSDITTLSVEPDKKDSASTSVSVTGQVQGNSSIKLELDASKKKESKDHQLLRYLLDKDEKDLRSTPNLSLDDVKVKVEKKEQMDPCNTNPTPMTKPTPEEIKLEAQSQFTADLDQFDQLLPTLEKAAQLPGLCETDRMDGAVTSVTIKSEILPASLQSATARPTSRLNRLPELELEAIDNQFGQPGTGDQIPWTNNTVTAINQSKSEDQCISSQLDELLCPPTTVEGRNDEKALLEQLVSFLSGKDETELAELDRALGIDKLVQGGGLDVLSERFPPQQATPPLIMEERPNLYSQPYSSPSPTANLPSPFQGMVRQKPSLGTMPVQVTPPRGAFSPGMGMQPRQTLNRPPAAPNQLRLQLQQRLQGQQQLIHQNRQAILNQFAATAPVGINMRSGMQQQITPQPPLNAQMLAQRQRELYSQQHRQRQLIQQQRAMLMRQQSFGNNLPPSSGLPVQMGNPRLPQGAPQQFPYPPNYGTNPGTPPASTSPFSQLAANPEASLANRNSMVSRGMTGNIGGQFGTGINPQMQQNVFQYPGAGMVPQGEANFAPSLSPGSSMVPMPIPPPQSSLLQQTPPASGYQSPDMKAWQQGAIGNNNVFSQAVQNQPTPAQPGVYNNMSITVSMAGGNTNVQNMNPMMAQMQMSSLQMPGMNTVCPEQINDPALRHTGLYCNQLSSTDLLKTEADGTQQVQQVQVFADVQCTVNLVGGDPYLNQPGPLGTQKPTSGPQTPQAQQKSLLQQLLTE
# modifications: [35S]methionine-labeled (in vitro translated) in the GST precipitation assay
# Target: GAL4/HIF 71-826 (human, UniProt P04386 1-147 (Saccharomyces cerevisiae entry))
# Assay: cell-based or functional assay
binder,measurement,value
B1,"GAL4-responsive luciferase activity in COS7 cells, hypoxia, against hypoxia without exogenous coactivators",34 fold
